Measurements published in PubChem BioAssay AID1159614 (National Center for Advancing Translational Sciences (NCATS), 2016).
The whole screen tested about 45,000 compounds, of which about 65 (0.1%) were called active. The call rests on the fitted dose curve; in most records, active means well fitted activation curve with a large enough effect; inconclusive means small, poorly fitted or top-dose-only effect; inactive means no such curve, though single readings can be large or run the other way. The list shows a part of the results.

target: Galactocerebrosidase (Homo sapiens) (UniProt P54803); assay: A Novel Cell-Based Assay to Identify Small Molecules for B -Galactocerebrosidase; details: 145M-Twi-hGALC-G270D cells (Twitcher mouse brain line with human GALC G270D), HMU-beta-Gal fluorescence, 48 h; series mostly up to 57.5 µM; activation: at the top concentration; further: 0% is about no effect; nearly all actives have a fitted effect of over 65% in size
UniProt P54803, sequence (P54803 whole entry, looked up): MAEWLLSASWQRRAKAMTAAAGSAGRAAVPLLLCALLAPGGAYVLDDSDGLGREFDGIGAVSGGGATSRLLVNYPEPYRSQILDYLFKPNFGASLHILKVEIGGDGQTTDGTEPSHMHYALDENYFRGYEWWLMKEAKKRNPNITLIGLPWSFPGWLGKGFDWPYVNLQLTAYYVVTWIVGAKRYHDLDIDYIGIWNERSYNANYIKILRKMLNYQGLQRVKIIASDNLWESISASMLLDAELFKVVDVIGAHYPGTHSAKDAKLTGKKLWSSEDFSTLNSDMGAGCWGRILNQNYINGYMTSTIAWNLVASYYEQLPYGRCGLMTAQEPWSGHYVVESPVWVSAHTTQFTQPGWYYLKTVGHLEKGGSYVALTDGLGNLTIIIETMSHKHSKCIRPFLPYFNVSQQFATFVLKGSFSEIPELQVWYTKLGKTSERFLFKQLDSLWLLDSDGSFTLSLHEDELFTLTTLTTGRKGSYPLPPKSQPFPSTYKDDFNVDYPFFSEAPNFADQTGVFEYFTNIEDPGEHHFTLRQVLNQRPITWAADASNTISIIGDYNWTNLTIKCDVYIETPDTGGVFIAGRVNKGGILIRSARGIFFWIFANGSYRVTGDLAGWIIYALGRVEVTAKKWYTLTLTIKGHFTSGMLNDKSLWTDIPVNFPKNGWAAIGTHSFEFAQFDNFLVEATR
How it was run: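 Brain-derived Twitcher mouse 145M-Twi cells stably expressing human GALC-G270D or wild-type GALC, treated live, then residual GALC activity read by fluorescence of HMU-b-Gal substrate (0.1 mM final) in citrate-phosphate buffer pH 5.2 with sodium taurocholate. Signal increase indicates enhancement.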

activation, inactive:
NC(=O)C1(N2CCCCC2)CCN(CCCN2c3ccccc3CCc3ccc(Cl)cc32)CC1 -6.62%
Cc1cc(C)c(Cn2c(C(O)c3ccccc3)nc3ccccc32)c(C)c1 (configuration not stated) -13.5%
COc1cccc(CNC(=O)CCNS(=O)(=O)c2ccc3c(c2)oc(=O)n3C)c1 -9.04%
O=C(CSc1nc2ccccc2n1Cc1ccccc1Cl)NCc1ccccc1 -17%
CC(C)(C)C(=O)Nc1cccc(C(=O)OCc2cc(=O)n3nc(C4CCCCC4)sc3n2)c1 -19.5%
N#C/C(=C\c1ccc(-c2cc(Cl)ccc2Cl)o1)C(=O)Nc1ccccc1C(=O)O -13.4%
CCCCN(C)CCNC(=O)c1nn(-c2ccc(OC)cc2)c(=O)c2c1c1ccccc1n2C -4.84%
CCOC(=O)c1[nH]cnc1C(=O)Nc1ccc(F)cc1 -8.7%
COc1ccccc1OCC(O)CN1CCN(CC(=O)Nc2c(C)cccc2C)CC1 (configuration not stated) -18.1%
Cc1ccn2c(=O)c(C(=O)NCc3ccccc3Cl)c(O)nc2c1 -8.98%
COc1cc(OC)c(NC(=O)c2c3c(nn2C)-c2ccccc2SC3)cc1Cl -10.3%
CCc1ccccc1Nc1nn2c(=O)c3ccc(C(=O)NC4CCCCC4)cc3nc2s1 8.19%
CC1(C(=O)Nc2ncc(Cc3ccc(Br)cc3)s2)Cc2ccccc2C(=O)O1 (configuration not stated) -23%
COc1cccc2c1Oc1ncccc1N(c1ccc(C(=O)NCc3cccc(C)c3)s1)C2 -16.7%
Cc1ccc(N2CC(NC(=O)C3CCCCC3)CC2=O)cc1C (configuration not stated) -8.47%
COc1cccc(C(=O)Nc2ccc(NC(=O)c3ccc(C(C)(C)C)cc3)cc2)c1 3.07%
COC(=O)C(CCSC)NC(=O)c1cc2c(n(-c3ccc(OC)cc3)c1=O)CC(C)(C)CC2=O (configuration not stated) -16.3%
O=C(Nc1cc(Cl)cc(Cl)c1)c1ccc(F)c(S(=O)(=O)NCc2ccccc2Cl)c1 -13.7%
O=C(Nc1cccc2c(=O)cc(-c3nn[nH]n3)oc12)c1ccc(OCCCCc2ccccc2)cc1 -4.8%
COc1cc(OC)c(Nc2c3c(nc4nc(-c5cccs5)nn24)CCCC3)cc1Cl -3.76%
Cc1ccccc1-c1nnc(SCC(=O)N2CCCCC2)o1 -4.93%
CCOc1ccc(NS(=O)(=O)c2ccc3nc(-c4ccccc4)[nH]c3c2)cc1 -7.51%
CCN(c1ccccc1)S(=O)(=O)c1nnc(NC(=O)c2ccco2)s1 2.81%
CCC(C)NC(=O)c1ccc2nc(Cc3ccccc3)oc2c1 (configuration not stated) -10.8%
COc1ccc(-c2nc3scc(CCNC(=O)Cc4ccc(F)cc4)n3n2)cc1 -9.97%
Cc1ccc(-n2ncc(C(=O)Nc3c(Cl)cccc3Cl)c2C2CCNCC2)cc1 3.27%
Cc1nn(-c2ccccc2)c2sc(C(=O)Nc3cccc(O)c3)cc12 -10.3%
Cn1c(=O)cc(OCC(=O)NCc2ccc(F)cc2Cl)c2ccccc21 4.34%
COc1ccc(CCNC(=O)CCCn2nc(C)c3sc4ccccc4c3c2=O)cc1OC -3.34%
Cc1ccc(-c2nc(CS(=O)(=O)CC(=O)Nc3cc(C)ccc3C)c(C)o2)cc1 -9.82%
COc1cc(CN(C(=O)COc2ccc(Cl)c(C)c2)c2ccccn2)cc(OC)c1OC -40.3%
Cc1csc2nc(COc3ccccc3NC(=O)c3ccccc3Cl)cc(=O)n12 -9.02%
CSc1ccc(CCNC(=O)c2ccc(CS(=O)Cc3ccc(Cl)cc3)o2)cc1 (configuration not stated) -12.4%
O=C(COCc1cc(-c2ccc3c(c2)OCO3)on1)NCc1ccc(F)cc1 -1.04%
Cc1ccc2nc(-c3ccc(Cl)c(NC(=O)c4ccc(Br)o4)c3)oc2c1 -1.91%
CSc1nc2c([nH]c3ccccc32)c(=O)n1-c1ccc(C)cc1 -12.1%
O=C(Nc1ccccc1Cl)c1cc2c(-c3ccccc3)nn(-c3ccccc3)c2s1 -10.2%
Cc1cccc(-c2nc(CSCC(=O)N3CCN(c4cccc(C)c4C)CC3)c(C)o2)c1 -23.1%
CCc1ccc2c(c1)NC(c1cccnc1)=NC(c1ccc(C(C)(C)C)cc1)=N2 -35.9%
Cc1ccc(Cl)cc1NC(=O)c1cc(S(=O)(=O)N2CCCCCC2)cn1C -1.73%
Cc1ccc(C)c(N2CCN(S(=O)(=O)c3cc(C(=O)Nc4cc(Cl)cc(Cl)c4)ccc3F)CC2)c1 -22.5%
COc1cc(C2CC(=O)Nc3c2c(C)nn3-c2nncc(-c3ccccc3)n2)cc(OC)c1OC (configuration not stated) -13%
CCOc1ccc(C(=O)Nc2cccc(-c3nc4cccnc4s3)c2C)cc1OCC -12.2%
COc1ccc(Nc2ncc3c(n2)CCN(Cc2ccc(Br)s2)C3)c(OC)c1 -6.29%
COc1ccc(/C=C/c2nc(C#N)c(N3CCC(C)CC3)o2)cc1OC 2.51%
Cc1ccc2nc3c(cc(C#N)c(=O)n3-c3nnc(SCc4ccccc4Cl)s3)c(=O)n2c1 -6.73%
O=C(OCc1cc(=O)n2nc(-c3cccs3)sc2n1)c1ccc(F)cc1 0.638%
CCN(c1ccccc1)c1nnc(NC(=O)Nc2ccc(C)cc2)s1 -16.4%
CC(=O)N1N=C(c2ccc(C)cc2)CC1c1cn(-c2ccccc2)nc1-c1cccs1 (configuration not stated) 6.84%
CSc1ccc(CCNC(=O)c2ccc(-n3c(C)cc4c3CCCC4)cc2)cc1 -15.2%
CCC1CN(C(=O)N2CCC(C(=O)O)CC2)c2cc(C)ccc2O1 (configuration not stated) -6.69%
CCCNCC(O)COc1ccccc1C(=O)CCc1ccccc1 (configuration not stated) -15.8%
Cc1ccc(CCNC(=O)c2ccc(CSCc3ccccc3C)o2)cc1 3.99%
CCN(Cc1ccccc1)C(=O)C1CCN(S(=O)(=O)c2c(C)noc2/C=C/c2ccc(C)cc2)CC1 -10.2%
COc1ccc(Nc2cc(C)c3cc(NC(=O)Cc4c(F)cccc4Cl)ccc3n2)cc1 -7.41%
Cc1ccc2nc(-c3ccc(NC(=O)COc4ccc(Cl)c(C)c4)cc3)sc2c1 -0.713%
CCOC(=O)c1ccc(NC(=O)C2CCN(S(=O)(=O)c3ccc(C)cc3)CC2)cc1 -19.7%
COc1ccccc1CNC(=O)CS(=O)Cc1nc(-c2ccc(OC)c(OC)c2)oc1C (configuration not stated) -12.6%
CC(=O)c1nn(-c2ccc(OC(F)(F)F)cc2)nc1Nc1ccc(C)cc1 -1.64%
COc1ccccc1CNC(=O)c1sc2nc3n(c(=O)c2c1C)CCC3 -22.1%
CCOc1ccc(CNS(=O)(=O)c2ccc(-c3cc(C(F)(F)F)on3)s2)cc1 -10.5%
CCOc1ccc(-c2cc(C(=O)NCc3ccc(C)cc3)c3ccccc3n2)cc1 -6.57%
CCCNc1ccc(-c2nc(-c3ccncc3)no2)cc1[N+](=O)[O-] -0.934%
CCOc1ccc(Cl)cc1C1CC(=O)Nc2cc(OC)c(OC)c(OC)c21 (configuration not stated) -0.755%
Cc1cccc(N2CCN(C(=O)c3ccc(NC(=O)c4nsc5ccccc45)cc3)CC2C)c1 (configuration not stated) 1.12%
CCn1c(SCc2ccccc2F)nc(=O)c2c(C(=O)OC)cc(C3CC3)nc21 -24.1%
CCCC(CCC)C(=O)Nc1cccc(-c2cn3cccnc3n2)c1 -22.8%
Cc1ccc(C)c(N2CCN(C(=O)c3ccc4[nH]c(C)c(C)c4c3)CC2)c1 -5.22%
NC(=O)C(c1ccccc1)(c1ccccc1)[C@@H]1CCN(CCc2ccc3c(c2)CCO3)C1 -4.29%
CCOC(=O)C1CCCN(C(=O)Cn2ncc3c([nH]c4ccc(C)cc43)c2=O)C1 (configuration not stated) -8.78%
COc1ccc(CNC(=O)c2c(Nc3ccccc3C)sc(C(=O)c3ccccc3)c2N)cc1 -12.2%
COc1ccccc1CNC(=O)CN1C(=O)CCc2cc(S(=O)(=O)N3CCOCC3)ccc21 -28.3%
O=C(Nc1ccc2nc(SCC(=O)N3CCCC3)sc2c1)c1ccccc1F -11.3%
COc1cc2[nH]c(=O)n(CCCC(=O)NCc3ccccc3)c(=O)c2cc1OC -6.13%
CCc1ccc(NC(=O)CCCc2nc(-c3ccco3)no2)cc1 -44.4%
COC(=O)c1c(NC(=O)CCCOc2ccccc2C)sc2c1CCC(C)C2 (configuration not stated) -22.4%
Cc1ccc(OCc2nc(-c3ccc(C(=O)NCCc4ccc(S(N)(=O)=O)cc4)cc3)oc2C)cc1 -9.21%
CCOc1ccc(NC(=O)CNS(=O)(=O)c2ccc(Br)s2)cc1 -43.8%
CCOC(=O)c1cccc(N)c1 -13.7%
CCOC(=O)c1sc2ccccc2c1S(=O)(=O)N1CCN(c2ccccc2)CC1 6.82%
Cc1ccc(NC(=O)CN2C(=O)CCc3cc(S(=O)(=O)N4CCCCC4)ccc32)cc1N(C)C -4.87%
CC1CN(C(=O)N2CCC(C(=O)NCc3ccco3)CC2)c2cc(Cl)ccc2O1 (configuration not stated) -15.2%
COc1ccc(NC(=O)c2cc(-c3ccccc3O)no2)cc1 0.682%
CCCCN(CCCC)CCNC(=O)c1cc(=O)[nH]c2ccc(S(=O)(=O)N3CCCCCC3)cc12 -0.389%
Cc1ccc(CNC(=O)C2CCCN(S(=O)(=O)c3ccc4c(ccn4C)c3)C2)cc1 (configuration not stated) -12.2%
CN1CCN(C(=O)Nc2cccc(Cl)c2)c2cccnc21 -13.8%
CC(C)c1ccc(NC(=O)CSc2nc(=O)n(Cc3cccnc3)c3c2CCC3)cc1 -1.3%
Cc1ccc(Cl)cc1NC(=O)CSc1nc(C)c(C)c(C)c1C#N -10.1%
CCc1cnc2c(c1SCC(=O)Nc1cc(Cl)ccc1OC)c(=O)n(C)c(=O)n2C -11.6%
COc1ccc(CCNC(=O)Cn2cc(S(=O)(=O)Cc3cccc(Cl)c3)c3ccccc32)cc1OC -11.7%
COc1ccc(-c2noc(CSc3nnc(-c4ccc(Cl)cc4)n3C)n2)cc1OC -5.92%
CCOC(=O)c1cnc2c(C(F)(F)F)cccc2c1Nc1cccc(C(=O)OC)c1 -7.02%
CCOc1ccccc1NC(=O)CSc1nc2c(oc3ccccc32)c(=O)n1Cc1ccco1 -0.824%
COc1ccccc1Nc1c2c(nc3ccc(NC(=O)c4cccc(F)c4)cc13)CCCC2 -10.1%
O=C(NC1CCCC1)c1ccc2c(c1)N(Cc1ccccc1Cl)C(=O)c1ccccc1S2 -8.36%
Cc1cc(C)c(NC(=O)CSc2ncc(S(=O)(=O)c3ccc(C(C)(C)C)cc3)c(=O)[nH]2)c(C)c1 7.58%
CCc1ccc(CNC(=O)C2CCN(C(=O)N3CC(CC)Oc4ccc(C)cc43)CC2)cc1 (configuration not stated) -8.54%
